Measured values reported in article PMC10668032.
This is one part of the list. At the low end of the ranking the order means little.

Target: SIX1-Q177R homeodomain (UniProt Q15475)
Assay: universal protein binding microarray
Settings: Universal all-10-mer PBM (8x60K, AMADID 030236), 300 nM GST-tagged protein, Alexa Fluor 488 anti-GST; buffer, salt, pH and temperature not stated; high values mean tight binding; most listed sequences are background and not binding sites; double strand, one strand shown

Row | Sequence | binding signal [E-score]
1 | AGCCTGTC | -0.146
2 | ACCATCAG | 0.181
3 | ATAATGAA | -0.0498
4 | CCAGCGTC | 0.0885
5 | AAACCTGC | -0.109
6 | ACACCTTG | 0.44
7 | CTTTTCCC | -0.279
8 | AAATAATT | 0.0072
9 | CGAGACGC | 0.091
10 | CCGCTCTA | -0.0348
11 | ATAGGTGG | -0.0294
12 | CAAGTTGA | 0.0197
13 | CCTCCGAA | 0.0355
14 | ATCGGGTG | 0.335
15 | TGTATCAA | 0.158
16 | CAGCACGG | 0.0171
17 | AAAAGTAA | -0.158
18 | ACAAATTA | -0.125
19 | AATAGCGT | 0.0621
20 | AGGCTAAC | 0.0702
21 | AGGTCCCG | -0.131
22 | CATTGTAC | 0.00541
23 | AGTTTTCC | 0.0403
24 | CGACACCA | 0.488
25 | ACGACTTC | -0.0524

Row | Sequence | binding signal [E-score]
26 | AGTGCATA | 0.0138
27 | CTCTGGTC | 0.062
28 | CAATGTAA | -0.16
29 | CATTTTCC | -0.248
30 | CATTCCCC | -0.0211
31 | CGAGGTCA | 0.0313
32 | GTTATCTA | -0.224
33 | AATCTACT | -0.124
34 | CCCGTATA | 0.0426
35 | CATTTTGG | -0.256
36 | CAAAAATC | -0.259
37 | GCAGACGA | -0.306
38 | TAAACGCA | -0.031
39 | CTAAAAGA | -0.0522
40 | CTCGCCAG | 0.145
41 | GACGCCAC | 0.201
42 | CGATTTAG | -0.202
43 | GTACCCAA | 0.0537
44 | ATATTATG | -0.114
45 | ATCTTGTA | -0.0562
46 | CCACTAGA | 0.0421
47 | ACGACGTC | -0.226
48 | GAATCGTA | 0.00537
49 | ACTTCATG | 0.00637
50 | ATGTATAG | -0.155

Row | Sequence | binding signal [E-score]
51 | CAGCCTCA | -0.134
52 | ATGACGCA | -0.0723
53 | ACAAACGC | -0.142
54 | AACGGCGT | 0.07
55 | ACCATAAC | 0.0571
56 | ACCATCTG | 0.0261
57 | CTTCAGAA | -0.0508
58 | AATACTGA | -0.023
59 | CCGGATTA | 0.0614
60 | GTGGCGCA | -0.0198
61 | CTAAAAAA | -0.0342
62 | GCGTGCCC | 0.0457
63 | TCGGTACA | 0.219
64 | ACCGAGAG | 0.148
65 | TATTGTGA | -0.0714
66 | GTGGGTAA | 0.107
67 | TATCGAGA | 0.0992
68 | AACGGTGG | 0.0341
69 | CGGACTAG | -0.0947
70 | CGGCGCAG | -0.181
71 | CCACGCGA | 0.106
72 | ACTACCGC | -0.169
73 | ATCACCCA | -0.0423
74 | TAGGTAGA | -0.115
75 | CCACGACC | -0.0272

Row | Sequence | binding signal [E-score]
76 | AAAGCCTG | -0.232
77 | TACCTGCA | -0.106
78 | CCCTCTAC | 0.205
79 | ACCATGTC | -0.0764
80 | CCCGTTCC | -0.0168
81 | ATAGTAAT | -0.162
82 | GAACCTGC | -0.00907
83 | GGCACTAA | -0.0391
84 | GGCGATAA | 0.0231
85 | AACCCAAC | 0.0907
86 | ACATTACG | -0.192
87 | AACGGGTC | -0.069
88 | AGGGCGTA | 0.00412
89 | GTCCAATA | -0.145
90 | GAGTTACC | 0.0503
91 | GACAACCA | -0.176
92 | AAAAACAC | 0.368
93 | GAAAATAA | -0.162
94 | AAAGCTAC | -0.0444
95 | ATACGAGG | -0.0394
96 | ACCAAGCA | 0.0458
97 | GAGCCCTA | -0.14
98 | CTCCTTAA | 0.0345
99 | AAGTCCCT | -0.178
100 | CCAAGTTA | -0.0116

Row | Sequence | binding signal [E-score]
101 | ACCAACCA | 0.0679
102 | ATGGAAAT | -0.0483
103 | AAGCCTTG | -0.292
104 | ATATTGTC | -0.247
105 | GAAGACAC | 0.38
106 | CAGGAACA | 0.259
107 | CATACCCA | 0.0643
108 | CGACAAAA | -0.195
109 | GAAGCAAA | -0.136
110 | CCTATAAA | -0.0624
111 | AGCGCTGC | -0.246
112 | ACGTTGCT | -0.321
113 | CTCCCTAC | 0.046
114 | GATGGGTA | 0.118
115 | CTAGGCAA | -0.122
116 | ATTGATCA | -0.229
117 | CCTGATCC | 0.0875
118 | TTAGCTAA | -0.162
119 | CCTCAGTA | -0.128
120 | ACCCTCCC | 0.211
121 | AGTGATCA | 0.0118
122 | AGGGGCAC | 0.0599
123 | GATTGAAA | -0.233
124 | AAGCGTCG | -0.133
125 | AGGAAGTC | -0.337

Row | Sequence | binding signal [E-score]
126 | ACGATTGG | 0.0526
127 | AATGAATC | -0.0763
128 | AGTGGTAT | 0.121
129 | GGCACGCC | -0.117
130 | CACAAGAA | -0.0351
131 | TAAAACCA | 0.0369
132 | CCGCTTAA | -0.0821
133 | CTGATGTA | -0.155
134 | AATATGAA | -0.0409
135 | GACACGGA | 0.418
136 | CCGCGCCA | 0.0253
137 | ACCGCTAC | 0.108
138 | TACAAGTA | 0.101
139 | TCACTAAA | -0.0158
140 | CGTAGATC | -0.0924
141 | AGCAAGAG | -0.195
142 | CCTATTAA | -0.074
143 | CGTGCTAA | -0.0232
144 | AGTAAATA | -0.00499
145 | GCATAAAC | 0.184
146 | AGAGTACG | -0.0487
147 | TAAGTATA | -0.204
148 | ACGTATGC | -0.123
149 | ACAGCCGC | -0.192
150 | CTGGCTGA | -0.1

Row | Sequence | binding signal [E-score]
151 | ACGAGCAA | -0.0229
152 | AAGAATTC | -0.147
153 | CAGACGGG | -0.0152
154 | CACCTAAC | 0.128
155 | AAGCTGCC | -0.254
156 | ATATGGCA | -0.0524
157 | GACATGTC | -0.142
158 | ACGGGAAG | -0.0811
159 | CATCCAGC | -0.258
160 | CGTATTCA | -0.102
161 | CGCCCGCC | 0.036
162 | GCAAAAGA | -0.356
163 | CCCAATCG | 0.0369
164 | CACAACCA | 0.0251
165 | CTTACGCC | 0.0495
166 | AATTAGGT | -0.036
167 | AGCGACTA | -0.00444
168 | GGATAGAC | -0.0792
169 | CGACTAAA | -0.0625
170 | GAGAGACA | 0.0496
171 | AGGACGAA | -0.112
172 | CCTACTCA | 0.0456
173 | AATTCTGA | -0.0668
174 | CTTCGTAA | -0.207
175 | CACGTCTC | 0.0548

Row | Sequence | binding signal [E-score]
176 | GCTTTACA | -0.028
177 | AATGCGGA | -0.0909
178 | CTTGGATC | 0.123
179 | CCCCTGAA | 0.153
180 | CTGTTAAG | -0.117
181 | ATAGTTTC | -0.241
182 | GCCCTGTA | -0.0173
183 | AACTCCAG | -0.000985
184 | AGCAAACT | -0.181
185 | ACTCTAGG | 0.0647
186 | AATAGTGT | 0.355
187 | CAGCGATG | -0.241
188 | CACATGCC | -0.131
189 | AGGGCGTC | 0.119
190 | GGATGTAA | 0.0322
191 | CTCTCTAA | -0.198
192 | AACTTGTC | -0.263
193 | ATGTTTTG | -0.139
194 | AATAACCG | -0.238
195 | AAGCGTAC | -0.00592
196 | GAGAGCCA | -0.136
197 | CAGCATTC | -0.228
198 | CGACGGGC | 0.0314
199 | CATGCTCA | -0.0224
200 | GATTTCTA | -0.139

Row | Sequence | binding signal [E-score]
201 | AACACGGA | 0.372
202 | AACCCGCC | 0.112
203 | CGTGGACC | -0.12
204 | CCGGACCG | -0.0778
205 | ATCTCGAC | -0.19
206 | CGACTACA | 0.098
207 | GCGCATTA | 0.113
208 | AAGCTACA | 0.178
209 | CCAATCGC | 0.0213
210 | ATTCTGCC | -0.291
211 | ACCGCGGT | 0.187
212 | GGTGTCTA | 0.468
213 | GGGCTTAC | 0.0465
214 | CTAACATA | -0.221
215 | CCACCGCC | 0.136
216 | ACCGGAGC | 0.0343
217 | GATACTGA | 0.12
218 | CGCGACGA | -0.309
219 | TCCGCTCA | -0.0184
